Reference: patent US20240352130A1 (CHILDREN S HOSPITAL OF PHILADELPHIA, published 2024)

Molecular target: T1, PHOX2B (43-51) A*24:02 MHC complex (human)
T1 construct: also called PHOX2B (43-51) complex; PHOX2B target pMHC
Experiment: BLI (BLItz), biotinylated scFv on streptavidin sensor, soluble pMHC 200 nM

B1: Clone 302 (RU141-302) scFv (scFv)
scFv: SRNGGDGQSVLTQPPSVSVSPGQTASITCSGDKLGDKYACWYQQKPGQSPVLVIYQDSKRPSGIPERFSGSNSGNTATLTISGTQAMDEADYYCQAWDMVGSWTVVFGTGTKVTVSSQTGGSGGGGSGGGGSGGGGS[about 100 residues cut from this listing]PRFDGQWDNAFDIWGQGTMVTVSSS
Binder B1 has a Kd of 170 nM.
